In paper PMC4336329 (PLoS ONE, 2015):
Out of some 310,000 compounds screened, about 2,200 (0.71%) showed an effect of 50% or more. The effect is printed as a negative number. Some of the results follow.

The compounds below were run against human ether-à-go-go-related gene (hERG) potassium channel (human, UniProt Q12809) (assay: primary screen, population patch clamp on CHO cells stably expressing hERG).
Sequence of human ether-à-go-go-related gene (hERG) potassium channel (Q12809 whole entry, looked up): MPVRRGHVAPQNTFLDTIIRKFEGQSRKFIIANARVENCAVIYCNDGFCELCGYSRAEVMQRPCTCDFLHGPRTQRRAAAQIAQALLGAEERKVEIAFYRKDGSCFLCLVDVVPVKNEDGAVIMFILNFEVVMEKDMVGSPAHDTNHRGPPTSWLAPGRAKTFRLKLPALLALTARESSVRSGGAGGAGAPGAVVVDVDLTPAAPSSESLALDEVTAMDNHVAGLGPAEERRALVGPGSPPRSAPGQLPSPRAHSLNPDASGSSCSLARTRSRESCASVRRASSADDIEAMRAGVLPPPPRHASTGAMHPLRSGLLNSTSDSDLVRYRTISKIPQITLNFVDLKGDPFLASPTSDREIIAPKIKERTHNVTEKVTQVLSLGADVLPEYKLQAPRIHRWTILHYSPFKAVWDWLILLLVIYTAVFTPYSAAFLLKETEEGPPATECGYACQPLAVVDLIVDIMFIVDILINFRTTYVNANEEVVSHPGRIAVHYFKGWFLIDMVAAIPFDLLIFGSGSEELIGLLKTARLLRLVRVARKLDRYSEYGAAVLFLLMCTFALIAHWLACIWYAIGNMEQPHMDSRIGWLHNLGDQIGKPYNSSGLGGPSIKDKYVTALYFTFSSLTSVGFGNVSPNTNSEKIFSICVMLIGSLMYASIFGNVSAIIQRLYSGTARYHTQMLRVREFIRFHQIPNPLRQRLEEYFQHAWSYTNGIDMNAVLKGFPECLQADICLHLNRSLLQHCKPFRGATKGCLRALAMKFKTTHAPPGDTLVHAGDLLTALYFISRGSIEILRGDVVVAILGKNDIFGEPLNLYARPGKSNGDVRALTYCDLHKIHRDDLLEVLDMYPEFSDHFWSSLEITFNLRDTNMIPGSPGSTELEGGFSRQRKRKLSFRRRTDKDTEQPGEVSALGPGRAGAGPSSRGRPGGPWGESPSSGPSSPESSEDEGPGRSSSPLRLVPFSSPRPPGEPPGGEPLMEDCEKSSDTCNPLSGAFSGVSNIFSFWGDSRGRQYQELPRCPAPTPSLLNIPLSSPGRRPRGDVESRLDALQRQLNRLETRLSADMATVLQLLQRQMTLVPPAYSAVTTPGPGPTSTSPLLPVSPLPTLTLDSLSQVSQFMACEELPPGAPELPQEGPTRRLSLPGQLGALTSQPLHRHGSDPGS

SMILES	hERG current change (%, negative = inhibition) at 1uM [%]
CSc1ccc(/C=C(\NC(=O)c2ccccc2)C(=O)NN)cc1	9.43
Cc1noc(COc2ccccc2OCc2onc(C)c2Cl)c1Cl	9.02
Cc1ccccc1NC(=O)CCN1CCN(Cc2ccccc2)CC1	-3.88
CSCCC(NC(=O)c1ccccc1)C(=O)NCCCn1nc(C)cc1C (stereo not shown)	4.94
COc1ccc(C(=O)c2ccccc2Cl)cc1OC	-14.5
Cc1ccc(S(=O)(=O)NCc2ccc(C(=O)N3CCN(c4ccccc4)CC3)cc2)cc1	3.82
CCOC(=O)c1sc2nc3c(cc2c1N)COC(C)(CC)C3 (stereo not shown)	4.24
CCCN(C(=O)CSCC(=O)Nc1ccc(OC)cc1)c1c(N)n(Cc2ccccc2)c(=O)[nH]c1=O	-9.55
O=C(NCCc1ccccc1)c1ccc(Cl)cc1[N+](=O)[O-]	7.03
Cc1ccc(C)c(N2CCN(S(=O)(=O)c3c(C(=O)N4CCCCC4)c(C)n(C)c3C)CC2)c1	11.8
CCOC(=O)NNc1ccccc1	10.5
O=C(Nc1nccs1)c1nc[nH]c1C(=O)N1CCc2ccccc2C1	3.14
O=C(O)c1cccc(Nc2ncnc3sccc23)c1	16.5
Cc1cc(=O)n(CC(=O)O)c2ccccc12	12.6
O=C(CCN1CCN(c2ccccc2)CC1)N/N=C/c1ccccc1O	9.66
Cc1ccc(-c2nc3ccc([N+](=O)[O-])cc3[nH]2)cc1	2.31
C=C(Br)Cn1c(CC(C)C)nc2ccccc21	3.82
CC(C)Oc1cccc(C(=O)C2CCCN(C(=O)c3ccsc3)C2)c1 (stereo not shown)	0.833
COCCN(C(=O)COC(=O)c1ccccc1Nc1ccccc1)c1c(N)n(Cc2ccccc2)c(=O)[nH]c1=O	-19.1
CC(C)Oc1ccc(C(=O)N(Cc2ccco2)C2CCS(=O)(=O)C2)cc1 (stereo not shown)	6.13
CCn1c(/C=C/c2ccc(O)cc2)nc2ccccc2c1=O	15.8
Cc1ccccc1N1CCN(C2CCCN(C(=O)CCC(F)(F)F)C2)CC1 (stereo not shown)	2.12

SMILES	hERG current change (%, negative = inhibition) at 1uM [%]
O=C(COC(=O)CCCC1=NS(=O)(=O)c2ccccc2N1)Nc1ccc(Br)cc1	7.43
CCOC(=O)c1ccc(Oc2nc(NC)nc(Nc3ccccc3)n2)cc1	-19
COc1ccc(CNC(=O)CCC(=O)Nc2nnc(C(C)C)s2)cc1	4.59
COc1ccc(N(C)C(=O)Cc2c(C(=O)O)n(C)c3ccccc23)cc1	21.5
O=C(c1ccco1)N1CCN=C1SCc1ccccc1Cl	-6.94
O=C(NC(=S)Nc1ccc(Cc2ccncc2)cc1)c1ccccc1Cl	-0.467
COc1cc(/C=C/C(=O)OCC(=O)Nc2ccc(C)cc2[N+](=O)[O-])ccc1O	-3.44
Cc1ccc(/C=N/NC(=O)COc2ccc(Cl)c(C)c2)o1	29.9
Cc1ccc(NC(=O)CCc2c(C)nn(-c3ccc(N4CCOCC4)nn3)c2C)cc1F	6.28
CCN(CC)C(=O)Cn1cc(C=C2C(=O)N(C)C(=O)N(C)C2=O)c2ccccc21	14.9
Cc1ccc(NC(=O)CCc2ccc(C)o2)c(C)c1	9.54
Cc1cc(OC(C)C(=O)NCc2ccccn2)c2c(C)c(Cc3ccccc3)c(=O)oc2c1 (stereo not shown)	12.1
CC1(C)CC(CCN(Cc2ccccc2)C(=O)c2ccco2)(c2ccccc2)CCO1 (stereo not shown)	10.7
CN1CCCN(C(=O)c2cccc3ccccc23)CC1	6.22
O=C(O)CCC(=O)Nc1cccc(-c2csc(-c3ccccc3)n2)c1	4.25
Cc1nc2ccn(Cc3ccccc3)c(=O)c2cc1C(=O)N1CCN(c2ccc(F)cc2)CC1	-43.2
Cl.OC(CNC1CCCC1)COc1ccccc1Br (stereo not shown)	16.8
O=C1CN(CC(=O)N2CCOCC2)c2ccccc2O1	13.2
O=C(Nc1ccc(SC(F)F)cc1)c1ccccc1F	7.84
Fc1ccc(Nc2nc(Oc3ccccc3F)nc(N3CCCC3)n2)cc1	13.2
CCCn1nc2ccccc2c1P(=O)(N1CCOCC1)N1CCOCC1	-0.888
Cc1ccc2nc(N=C(N)N)nc(C)c2c1	15.4

SMILES	hERG current change (%, negative = inhibition) at 1uM [%]
CCCCN(C)C(=S)Nc1ccc(Oc2ccccc2)cc1	12.6
O=C(NCCS(=O)(=O)N1CCCCCC1)c1ccccc1	10.2
Cc1ccc(Br)cc1S(=O)(=O)Nc1cccnc1	17.8
CCCCN(C(=O)CSc1ncn[nH]1)c1c(N)n(Cc2ccccc2)c(=O)[nH]c1=O	11.9
O=C(N/N=C/c1ccccc1Cl)c1nc2ccc([N+](=O)[O-])cc2c(=O)[nH]1	8.9
COc1ccc2c(c1)C(=O)CC(c1ccc3c(c1)OCCO3)O2 (stereo not shown)	16.1
O=C(O)c1ccccc1C1=Nc2ccc(O)cc2Oc2cc(O)ccc21	11.5
COc1cccc(N2CCN(CC(=O)C34CC5CC(CC(C5)C3)C4)CC2)c1	14
C=CCN(CC=C)C(=O)C(=O)c1cc(C)n(-c2ccc([N+](=O)[O-])cc2)c1C	-35.1
Cc1cc(C)c(NC(=O)COC(=O)c2cc([N+](=O)[O-])ccc2N2CCOCC2)c(C)c1	23.8
O=C(NCC1CC1)c1ccc2c3n(nc2c1)-c1ccccc1CO3	8.4
CCNS(=O)(=O)c1ccc(CCC(=O)Nc2ccc(C(=O)OC)cc2)cc1	18.3
O=C(COc1ccccc1Br)NCCc1nc2ccccc2[nH]1	-0.177
C#CCOCCOCCOCCNc1nc(N2CCN(C(=O)CCCCCCCCCCNC(=O)[C@@H](CCSC)n3cc(CCO)nn3)CC2)nc(N2CCN(C(=O)CCCCCCCCCCNC(=O)[C@H](CCC(=O)O)n3cc(CCCCCN)nn3)CC2)n1	4.75
O=C(Nn1cnnc1)c1ccccc1CCc1ccccc1	10.2
CCOC(=O)C1CCN(C(=O)CN2C(=O)c3cccnc3Oc3ccccc32)CC1	12.6
CC1(C(=O)Oc2ccccc2)Cc2ccccc2C(=O)O1 (stereo not shown)	7.24
CCCc1cc(=O)oc2cc(C)cc(OCC(=O)Nc3ccccn3)c12	20.7
O=C(Nc1ccc(S(=O)(=O)Nc2nccs2)cc1)c1cc(-c2ccccn2)nc2ccccc12	10.4
CCN(CC(=O)Nc1ccccc1C(F)(F)F)C(=O)c1ccc2c(=O)n3c(nc2c1)CCC3	12.6
O=[N+]([O-])c1ccc(/C=N/n2cn[nH]c2=S)cc1	21.8
O=C(CN1CCN(Cc2ccccc2)C1=O)NCc1cccs1	12.3

SMILES	hERG current change (%, negative = inhibition) at 1uM [%]
COc1ccc(N(CC(O)CN2C(=O)NC(C)(C)C2=O)S(=O)(=O)c2ccc(C)cc2)cc1 (stereo not shown)	-1.89
COC(=O)C(c1ccccc1)N1CCCCCC1.Cl (stereo not shown)	4.56
CS(=O)(=O)N(CCc1ccccc1)CC(=O)N1CCc2ccccc2C1	-1.07
CCc1nc(NCCCN2CCOCC2)c2oc3ccccc3c2n1	-8.01
CN(C)CCNC(=O)Cn1nc(-c2ccc(Cl)cc2)ccc1=O	2.94
Cc1ccc(CC(=O)Nc2ccc(Cl)cn2)cc1	12.2
CCN(CC)c1ccc(NC(=O)/C=C\c2ccccc2Cl)cc1	7.66
O=C(NCCc1ccccc1)c1cnc(Cl)c(Cl)c1	16.6
Cc1ccc(-n2c(Cc3cccn3C)nnc2SCC(=O)NCc2ccc3c(c2)OCO3)cc1	-6.64
O=C(c1ccc(CS(=O)Cc2ccc(Cl)cc2)o1)N1CCN(c2ccccc2F)CC1 (stereo not shown)	-5
CCO[C@H]1OC(C(=O)NCc2ccccc2)=C[C@@H](C)[C@@H]1CCCO	12.3
Cc1cc(C(=O)N/N=C/c2cc(Br)cc(Br)c2OC(=O)c2ccccc2)n[nH]1	12.7
CCOc1cc(-c2sc(Nc3ccccc3)n[n+]2C)ccc1OC.[Cl-]	10.4
COCCCNC(=S)Nc1cc(C)c(C)cc1C	8.85
O=C(CO)N/N=C/c1c2ccccc2cc2ccccc12	1.3
O=C(CCCCCNC(=O)N1CCn2c1nc1ccccc12)NCc1ccc(Cl)cc1	8.31
CCc1sc(C(=O)NCc2cc(C)n(C)n2)cc1Br	4.86
COc1ccc(-n2c(=S)[nH]c3cc(C(=O)Nc4ccc(OC)c(OC)c4)ccc3c2=O)cc1	11.5
COc1ccc(CN2CCC(C(=O)c3ccc(F)cc3)CC2)cc1	-81
Cc1ccccc1-n1c(Cn2c(=O)sc3ccccc32)nnc1SCC(N)=O	10.6
Cc1ccc(C(=O)CCC(=O)Nc2ccccc2C)c(C)c1	17.7
Cc1ccccc1N1C(=O)C(Oc2ccc(Cl)cc2)C1CNC(C)(C)C (stereo not shown)	6.07
